Experimental data: PubChem BioAssay AID903 (National Center for Advancing Translational Sciences (NCATS), 2007)
Hit rate of the full screen: of about 55,000 compounds, about 340 (0.62%) were called active. The shares of active, inactive and inconclusive entries below differ from those in the screen. Calls come from the whole dose curve; as a rule, active = well fitted cell-killing curve with a large enough effect; inconclusive = small, poorly fitted or top-dose-only effect; inactive = no such curve, though single readings can be large or run the other way. A potency beside an inconclusive call is a rough fit, not a confirmed value.

Test: qHTS Screen for Compounds that Selectively Target Cancer Cells with p53 Mutations: Cytotoxicity of p53 Null Cells at the Permissive Temperature; note: nearly all actives have a fitted effect of over 55% in size
Settings: H1299-neo p53 null cells, ATP luminescence, 24 h, 32C; series mostly up to 46.1 µM
Outline: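 ATP-content luminescence in p53-null H1299-neo cells after 24 h compound exposure (up to 46 uM) at 32C permissive temperature; 0% and 100% killing set by DMSO and 100 uM tamoxifen; Hill-equation AC50.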
Potency is the fitted concentration of half-maximal effect; tags give direction and shape of the fitted curve.

Q: Which Potency does the source give for CCC1CCc2c(sc(NC(=O)c3ccco3)c2C(N)=O)C1 (configuration not stated) here?
A: inconclusive: 10 µM [cytotoxic, partial curve]

Q: Which Potency does the source give for Cc1ccc2nc(SCc3nc(-c4ccc(Cl)cc4)no3)[nH]c2c1 here?
A: inconclusive: 25.1 µM [cytotoxic, single point]

Q: Which Potency does the source give for COCCCn1c(=N)c(C(=O)NCC2CCCO2)cc2c(=O)n3cccc(C)c3nc21 (configuration not stated) here?
A: inactive

Q: Which Potency does the source give for CSc1ccccc1-c1nnc(NC(=O)c2ccc3c(c2)OCCO3)o1 here?
A: inconclusive: 12.6 µM [cytotoxic, partial curve]

Q: With CS(=O)(=O)c1ncc(Cl)c(C(=O)N(Cc2ccc(Cl)cc2)Cc2ccco2)n1 as the molecule, how does the Potency read?
A: inconclusive: 20 µM [cytotoxic, single point]

Q: For CC(=O)c1ccc(N2CCN(C(=O)Nc3cn(CC(C)C)c(=O)c4ccccc34)CC2)cc1, which Potency is on record?
A: inactive

Q: For CCOC(=O)C1CCN(S(=O)(=O)c2cc(-c3cc(C)no3)ccc2OC)CC1, which Potency is on record?
A: inactive

Q: Which Potency does the source give for CCc1ccc(C2=CC(c3cccc(C)c3)n3c(nc4ccccc43)N2)cc1 (configuration not stated) here?
A: active: 10 µM

Q: For CC(=O)Nc1ccc(NC(=O)CCc2c(C)nc3c(c(C)nn3-c3ccc(C)cc3)c2C)cc1, which Potency is on record?
A: inactive

Q: For Cc1ccc(-n2ncc3c(N4CCCCC4)ncnc32)cc1Cl, which Potency is on record?
A: inconclusive: 2 µM [cytotoxic, full curve]

Q: For CC(=O)Nc1ccc(-c2csc(NCc3ccco3)n2)cc1, which Potency is on record?
A: inconclusive: 31.6 µM [cytotoxic, single point]

Q: With CCCCn1c(=O)c2oc3ccccc3c2n(CC(=O)Nc2cc(C)ccc2C)c1=O as the molecule, how does the Potency read?
A: inactive

Q: Which Potency does the source give for O=C(CSc1nnc(-c2ccccc2Br)n1-c1ccccc1)c1ccc(F)cc1 here?
A: inactive

Q: Which Potency does the source give for CC(C)(C)C1CCc2nc(NC(=O)c3cccc(Cl)c3)sc2C1 (configuration not stated) here?
A: inactive

Q: For Cc1ccc(Cl)cc1NC(=O)N1CCN(C)c2ncccc21, which Potency is on record?
A: inconclusive: 5.62 µM [cytotoxic, single point]

Q: Which Potency does the source give for CCOCCOC(=O)c1ccc(NC(=O)/C=C/c2ccc(OC)c(OC)c2)cc1 here?
A: inconclusive: 31.6 µM [cytotoxic, single point]

Q: Which Potency does the source give for O=C(Nc1cccc(Cl)c1)c1c(NC(=O)C(F)(F)F)sc2c1CCCC2 here?
A: inconclusive: 1.12 µM [cytotoxic, full curve]

Q: With Cc1cn2c(=O)cc(COc3ccc(NC(=O)c4cccc(F)c4)cc3)nc2s1 as the molecule, how does the Potency read?
A: inconclusive: 6.31 µM [cytotoxic, single point]

Q: Which Potency does the source give for Cc1ccc(-c2cc(N)n3nc(-c4ccc(C)cc4)cc3n2)cc1 here?
A: inconclusive: 7.94 µM [cytotoxic, partial curve]

Q: With Cc1cc(C)cc(NC(=O)CSc2nccn2-c2ccccc2)c1 as the molecule, how does the Potency read?
A: inconclusive: 0.794 µM [cytotoxic, full curve, poor fit]

Q: With Cc1ccc(NC(=O)c2sc3ccccc3c2Cl)cc1 as the molecule, how does the Potency read?
A: inconclusive: 7.94 µM [cytotoxic, partial curve]

Q: For O=C(Nc1cccc(C(=O)N2CCCCC2)c1)c1nsc2ccccc12, which Potency is on record?
A: inconclusive: 12.6 µM [cytotoxic, partial curve]

Q: With COc1ccc(C(=O)Nc2cccc(OCc3cc(=O)n4c5c(sc4n3)CCCC5)c2)cc1 as the molecule, how does the Potency read?
A: inconclusive: 35.5 µM [cytotoxic, single point]

Q: Which Potency does the source give for O=C(NCc1ccccc1)c1ccc(NC(=O)c2nsc3ccccc23)cc1 here?
A: inconclusive: 20 µM [cytotoxic, single point]

Q: For CCCNC(=O)c1ccc(-n2c(-c3ccccc3)cc3c2CCCCC3)cc1, which Potency is on record?
A: inactive

Q: For CCOc1ccc2nc(NC(=O)CS(=O)(=O)c3ccc(Cl)cc3)sc2c1, which Potency is on record?
A: inconclusive: 3.55 µM [cytotoxic, full curve]

Q: For CC(C)c1ccc(S(=O)(=O)/N=C2/C=C(Sc3ncn[nH]3)C(=O)c3ccccc32)cc1, which Potency is on record?
A: active: 6.31 µM

Q: With CCOC(=O)c1cc(-c2ccccc2)n(CCCC(=O)Nc2cccc(C)c2C)c1C as the molecule, how does the Potency read?
A: inactive

Q: With Cc1nn(-c2ccccc2Cl)c(Cl)c1/C=N/Nc1cccc(C(=O)O)c1 as the molecule, how does the Potency read?
A: active: 10 µM

Q: With O=C1CC(c2nnc(Cc3ccc(F)cc3Cl)o2)CN1c1ccccc1 (configuration not stated) as the molecule, how does the Potency read?
A: inactive

Q: For Cc1cc(C(=O)NC2=NCCS2)cs1, which Potency is on record?
A: inconclusive: 20 µM [cytotoxic, single point]

Q: Which Potency does the source give for COc1cc(OC)c(NC(=O)C2CCN(C(=O)c3sc4nc[nH]c(=O)c4c3C)CC2)cc1Cl here?
A: inconclusive: 5.62 µM [cytotoxic, single point]

Q: For CCC1Oc2ccc(C)cc2N(CC(=O)NCc2ccc(OC)cc2)C1=O (configuration not stated), which Potency is on record?
A: inactive

Q: With COc1ccc(-n2nc3c(N4CCCC(C(=O)NCc5ccc(C)cc5)C4)nnc(C)c3c2C)cc1 (configuration not stated) as the molecule, how does the Potency read?
A: inconclusive: 31.6 µM [cytotoxic, single point]

Q: Which Potency does the source give for CC(=O)N1c2ccc(S(=O)(=O)N3CCCCCC3)cc2CC1C(=O)NC(C)C (configuration not stated) here?
A: inconclusive: 31.6 µM [cytotoxic, single point]

Q: For Cc1cccc(CCNC(=O)c2cnc3c(C)cccn3c2=O)c1, which Potency is on record?
A: inconclusive: 15.8 µM [cytotoxic, partial curve]

Q: With COc1cccc(-c2nnc(-c3ccc(C)o3)o2)c1 as the molecule, how does the Potency read?
A: active: 12.6 µM

Q: With Cc1ccccc1-c1n[nH]c(=S)n1/N=C/c1c(C)nn(-c2ccccc2)c1C as the molecule, how does the Potency read?
A: inconclusive: 3.16 µM [cytotoxic, single point]

Q: Which Potency does the source give for CN(C)c1ccc(C2C=C(c3ccccc3)Nc3nnnn32)cc1 (configuration not stated) here?
A: inconclusive: 10 µM [cytotoxic, partial curve, poor fit]

Q: With Cc1nn(C)c2c1c(C(F)(F)F)cc(=O)n2CC(=O)N1CCCCC1C (configuration not stated) as the molecule, how does the Potency read?
A: inactive

Q: With Cn1nnnc1SCCCNCc1ccc(-c2ccc(F)c(Cl)c2)o1 as the molecule, how does the Potency read?
A: inactive

Q: For CCn1c(=O)sc2cc(NS(=O)(=O)c3ccc(C)cc3)ccc21, which Potency is on record?
A: inactive

Q: Which Potency does the source give for COc1ccc(/C=C/C(=O)Nc2sc(C)c(C)c2C(=O)O)cc1 here?
A: active: 3.16 µM

Q: With COc1ccccc1C1Nc2c(sc3nc(C)cc(C)c23)C(=O)N1c1ccccc1 (configuration not stated) as the molecule, how does the Potency read?
A: inconclusive: 14.1 µM [cytotoxic, single point]

Q: For COc1cccc(CC(=O)Nc2ccc(-c3nc4ccccc4s3)cc2)c1, which Potency is on record?
A: inactive

Q: With O=C(NCC(c1ccc2c(c1)OCO2)N1CCOCC1)C(=O)Nc1ccccc1 (configuration not stated) as the molecule, how does the Potency read?
A: inconclusive: 3.55 µM [cytotoxic, single point]

Q: Which Potency does the source give for Cc1ccccc1OCCNc1cc(N2CCN(CCO)CC2)ccc1[N+](=O)[O-] here?
A: inconclusive: 22.4 µM [cytotoxic, single point]

Q: With CSc1nc(Nc2ccc(F)cc2)cc(-c2ccccc2)n1 as the molecule, how does the Potency read?
A: inconclusive: 25.1 µM [cytotoxic, single point]

Q: With CCOc1ccc(-c2cc3nc(C4CCN(C(=O)OC(C)(C)C)CC4)c(C(=O)Nc4cccc(CC)c4)cn3n2)cc1 as the molecule, how does the Potency read?
A: inconclusive: 35.5 µM [cytotoxic, single point]

Q: For CCc1ccc(NC(=O)CSc2nccn2-c2ccc(F)cc2)cc1, which Potency is on record?
A: inconclusive: 5.62 µM [cytotoxic, single point]

Q: For Cc1ccc(-n2ncc3c(NCc4ccccc4)ncnc32)cc1Cl, which Potency is on record?
A: inactive

Q: With CCOc1ccc(CNC(=O)C2CCCCN2S(=O)(=O)c2ccc(F)cc2)cc1OC (configuration not stated) as the molecule, how does the Potency read?
A: inactive

Q: For CC1CCCN(c2nc3c(-c4ccc(Cl)cc4)nnn3c3ccccc23)C1 (configuration not stated), which Potency is on record?
A: inconclusive: 2.82 µM [cytotoxic, single point]

Q: Which Potency does the source give for c1ccc(Nc2nc(N3CCNCC3)nc(N3CCOCC3)n2)cc1 here?
A: inactive

Q: Which Potency does the source give for CCC(=O)Oc1c(Sc2ccc(Cl)cc2)c(C)nn1-c1ccccc1 here?
A: inconclusive: 35.5 µM [cytotoxic, single point]

Q: With CCC(C)Nc1ncnc2c1cnn2-c1ccc(F)cc1 (configuration not stated) as the molecule, how does the Potency read?
A: inconclusive: 12.6 µM [cytotoxic, partial curve]

Q: With Fc1ccc(C2=CC(c3ccc(F)cc3)n3c(nc4ccccc43)N2)cc1 (configuration not stated) as the molecule, how does the Potency read?
A: active: 12.6 µM

Q: With CCN(Cc1ccccc1)S(=O)(=O)c1ccc(-c2coc(C)n2)cc1 as the molecule, how does the Potency read?
A: inconclusive: 5.62 µM [cytotoxic, single point]

Q: With COc1cc(OC)cc(-c2nc(-c3ccc4c(c3)[nH]c(=O)n4C)no2)c1 as the molecule, how does the Potency read?
A: inconclusive: 5.62 µM [cytotoxic, single point]

Q: With Cc1ccccc1-c1nnn(CC(=O)Nc2sc3c(c2C#N)CCC(C(C)(C)C)C3)n1 (configuration not stated) as the molecule, how does the Potency read?
A: inactive

Q: For Clc1ccc(C(c2ccccc2)c2c[nH]c3ccccc23)s1 (configuration not stated), which Potency is on record?
A: inactive

Q: Which Potency does the source give for CSc1ccc(/C=C/c2nc3ccccc3n2S(=O)(=O)c2cccc(Cl)c2)cc1 here?
A: active: 3.16 µM

Q: With O=C(NCCc1ccc(Cl)cc1)C(=O)NCC(c1ccco1)S(=O)(=O)c1ccc(Cl)cc1 (configuration not stated) as the molecule, how does the Potency read?
A: inactive

Q: With CCCn1c(=NC(=O)c2cc3ccccc3o2)c(C(=O)OCC)cc2c(=O)n3ccccc3nc21 as the molecule, how does the Potency read?
A: inactive

Q: Which Potency does the source give for COc1cc(C(=O)NC(c2ccc(Cl)cc2)c2cc(Cl)c3cccnc3c2O)cc(OC)c1OC (configuration not stated) here?
A: inconclusive: 0.794 µM [cytotoxic, full curve]

Q: For COc1cc(C2c3c(-c4ccccc4O)n[nH]c3C(=O)N2Cc2ccco2)ccc1OCC(C)C (configuration not stated), which Potency is on record?
A: inconclusive: 31.6 µM [cytotoxic, single point]

Q: For CCCc1nn2c(=O)cc(COc3ccc(/C=C(\C#N)C(=O)Nc4ccccc4)cc3)nc2s1, which Potency is on record?
A: inconclusive: 2.82 µM [cytotoxic, single point]

Q: Which Potency does the source give for c1ccc(Nc2nc(-c3cccs3)cs2)nc1 here?
A: inconclusive: 14.1 µM [cytotoxic, single point]

Q: Which Potency does the source give for COC(=O)c1cc2sc(Cl)cc2n1Cc1cc(C)ccc1C here?
A: inactive

Q: For CC(C)Oc1ccc(C(=O)Nc2nnc(SCC(=O)N3CCOCC3)s2)cc1, which Potency is on record?
A: active: 0.562 µM

Q: With CCCCCSc1nc2sc3c(c2c(=O)n1-c1ccc(OC)cc1)CCN(C(C)=O)C3 as the molecule, how does the Potency read?
A: inconclusive: 31.6 µM [cytotoxic, single point]

Q: Which Potency does the source give for COc1ccc(CSc2nc3ccncc3n2CC(=O)Nc2ccc(C)c(F)c2)cc1 here?
A: inconclusive: 11.2 µM [cytotoxic, partial curve]
